US11365205B2 (Aurigene Discovery Technologies Limited, priority 2018, dated 2022)

These molecules were tested against PRMT5/MEP50 Complex (Homo sapiens (Human), UniProt O14744) (assay: PRMT5 inhibition based on TR-FRET assay). Conditions: 32 nM PRMT5:MEP50, 50 nM Histone-H4 peptide, 1 μM SAM.
Format: biochemical
Description: PRMT5 Inhibition Based on TR-FRET Assay:
Protein arginine methyltransferase 5 (PRMT5) is a type II arginine methyltransferase that catalyze mono- and symmetric demethylation on arginine residues of histone or non-histone proteins in presence of S-adenosylmethionine (AdoMet or SAM) a cofactor responsible for donating the methyl group. PRMT5 is reported to be overexpressed in several human cancers. To identify compounds that inhibit the PRMT5 and decrease its activity, a TR-FRET based assay has been established. Time-resolved fluorescence resonance energy transfer (TR-FRET) HTS assays are homogeneous proximity assays where the interaction of two dye-labeled binding partners is detected by the energy transfer between a donor and an acceptor dye and the subsequent light emission by the acceptor dye. PRMT5 catalyzes Histone H4 peptide which is biotin tagged to the Lysine amino acid at carboxyl end, in presence of S-adenosyl-1-methionine (SAM) to methylate the peptide. The antibody specific to mono methylated H4 peptide (H4R3) with Ig conjugate binds to the methylated peptide, indirectly binding to the Europium lanthanide. SureLight Allophycocyanin-Streptavidin binds to the biotin tag of the peptide, therefore accepting the energy transferred from the Europium lanthanide. This energy transfer between Europium to SureLight Allophycocyanin is a direct measure of the activity/inhibition of the PRMT5 enzyme.
Assay buffer: 20 mM BICINE (pH 7.6), 25 mM NaCl, 2 mM DTT, 0.01% Tween-20 and 0.01% BSA.
The compound dilutions were prepared as 7.5% DMSO stock solutions in assay buffer. To 2 μL (7.5×) of test compound, 5 μL of PRMT5 enzyme prepared in assay buffer (Final concentration of 32 nM in 15 μL reaction volume) was added and allowed for 30 minutes pre-incubation time in a white polystyrene 384-well plate at room temperature. […] The plates were then read on Victor-3 with Excitation at 340 nm and Emissions collected at 615 and 665 nm in TR-FRET protocol. […]

Sequence of UniProt O14744 (O14744 whole entry): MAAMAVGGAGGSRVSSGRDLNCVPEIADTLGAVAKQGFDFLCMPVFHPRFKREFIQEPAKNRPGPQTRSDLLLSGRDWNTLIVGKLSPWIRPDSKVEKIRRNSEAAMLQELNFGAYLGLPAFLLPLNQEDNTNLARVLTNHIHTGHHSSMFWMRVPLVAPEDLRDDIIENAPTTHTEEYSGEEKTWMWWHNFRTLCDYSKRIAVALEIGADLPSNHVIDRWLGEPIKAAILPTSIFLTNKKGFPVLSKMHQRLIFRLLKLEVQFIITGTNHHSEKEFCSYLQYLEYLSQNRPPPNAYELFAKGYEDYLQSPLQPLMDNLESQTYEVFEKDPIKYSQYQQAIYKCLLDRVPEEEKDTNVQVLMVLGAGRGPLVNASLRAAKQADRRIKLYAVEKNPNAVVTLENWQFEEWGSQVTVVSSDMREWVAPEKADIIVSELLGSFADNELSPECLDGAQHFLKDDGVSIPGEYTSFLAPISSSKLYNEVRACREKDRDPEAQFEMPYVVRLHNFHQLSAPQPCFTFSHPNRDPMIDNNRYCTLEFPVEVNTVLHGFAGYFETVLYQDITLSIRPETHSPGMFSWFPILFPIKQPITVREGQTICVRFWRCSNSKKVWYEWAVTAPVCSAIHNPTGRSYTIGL
Sequence of UniProt O14744 (Q9BQA1 whole entry partner): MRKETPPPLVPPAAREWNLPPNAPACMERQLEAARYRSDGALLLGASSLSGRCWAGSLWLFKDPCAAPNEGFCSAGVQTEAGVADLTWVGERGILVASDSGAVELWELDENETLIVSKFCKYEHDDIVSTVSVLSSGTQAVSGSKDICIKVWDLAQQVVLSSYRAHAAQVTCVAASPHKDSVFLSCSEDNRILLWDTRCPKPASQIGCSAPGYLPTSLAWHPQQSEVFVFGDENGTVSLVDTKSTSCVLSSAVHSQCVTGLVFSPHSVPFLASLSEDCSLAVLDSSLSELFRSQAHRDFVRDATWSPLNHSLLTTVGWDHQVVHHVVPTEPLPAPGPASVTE

Row | IC50 [nM] | Structure (SMILES)
1 | 1700 | Cn1cnc2ccc(CN3CCN(CC(O)CN4CCc5ccccc5C4)C3=O)cc21 (single isomer, unassigned) [Example 1a, 1-(3-(3,4-Dihydroisoquinolin-2(1H)-yl)-2-hydroxypropyl)-3-((1-methyl-1H-benzo[d]imidazol-6-yl)methyl)imidazolidin-2-one]
2 | 270 | N#Cc1ccc(CN2C(=O)CN(CC(O)CN3CCc4ccccc4C3)C2=O)nc1 (stereo not drawn) [Example 73, 6-((3-(3-(3,4-dihydroisoquinolin-2(1H)-yl)-2-hydroxypropyl)-2,5-dioxoimidazolidin-1-yl)methyl)nicotinonitrile]
3 | 340 | COc1cc(CN2C(=O)N(CC(O)CN3CCc4ccccc4C3)C(C)(C)C2=O)ccc1C#N (stereo not drawn) [Example 75, 4-((3-(3-(3,4-Dihydroisoquinolin-2(1H)-yl)-2-hydroxypropyl)-4,4-dimethyl-2,5-dioxoimidazolidin-1-yl)methyl)-2-methoxybenzonitrile]
